According to PubChem BioAssay AID1963576 (National Center for Advancing Translational Sciences (NCATS), 2024):
Out of some 46,000 compounds screened, about 60 (0.1%) were called active. About 3% were inconclusive and are not listed. Calls follow the shape of the dose curve; as a rule, active = well fitted inhibition curve with a large enough effect; inconclusive = small, poorly fitted or top-dose-only effect; inactive = no such curve, though single readings can be large or run the other way. The list shows a part of the results.

assay: Primary qHTS assay for Inhibitors of ovarian cancer metastasis using an organotypic tumor microenvironment (TME) model.; also: nearly all actives have a fitted effect of over 65% in size;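 as to activity change, negative = inhibition: plate controls were DMSO wells for no effect and tomatine positive control wells for full effect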; conditions: SKOV3ip1-GFP adhesion/invasion on 3D omental model, fluorescence; series mostly up to 45.8 µM; activity change, negative = inhibition: at the top concentration
Procedure, shortened: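 Adhesion/invasion was scored as fixed GFP-labeled SKOV3ip1 cell counts (488/509 nm), normalized to DMSO and tomatine controls. Cancer cells in serum-free medium, with four compound doses (0.36-46 umol/L), sat 2 hr at RT then 16 hr at 37 C on a 48 hr fibroblast/mesothelial/ECM culture.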

outcome, inactive:
CCOc1ccc(OCC)c(NS(=O)(=O)c2c(C(=O)N3CCC(C)CC3)c(C)n(C)c2C)c1
COc1ccc(NC(=O)CN(c2ccc(C)cc2)S(=O)(=O)c2cccc3nonc23)cc1OC
CCOc1ccc(NC(=O)CN(c2ccc(Cl)cc2C)S(=O)(=O)c2ccccc2)cc1
O=C(Nc1ccc(OCc2cc(=O)n3c4c(sc3n2)CCCC4)cc1)c1ccccc1
CC(C)n1cnc(S(=O)(=O)N2CCCC(C(=O)NCc3ccccc3Cl)C2)c1 (stereo not given)
COc1ccc(Cn2c(=O)c3oc4ccccc4c3n(Cc3cccc(C)c3)c2=O)cc1
CC(C)CCNC(=O)c1ccc2c(c1)N(Cc1cccc(Cl)c1)C(=O)c1ccccc1S2
CC(=O)Nc1ccc(NC(=O)C2CCCN2S(=O)(=O)c2ccc3c(c2)CCCC(=O)N3)cc1 (stereo not given)
COc1ccc(OC)c(CCNC(=O)c2cc3c(=O)oc4ccc(C)cc4c3s2)c1
COc1cc(Cl)c(C)cc1NC(=O)c1ccc2c(SCC(=O)O)c3c(nc2c1)CCCC3
Cc1ccc(-n2nnc(-c3nsc(NC(=O)c4cccc(Cl)c4)n3)c2C)cc1C
Cc1ccc(-c2nc3scc(CCNS(=O)(=O)c4ccc(F)c(C)c4)n3n2)cc1
O=C1CC(c2ccccc2)Sc2nc(-c3ccc(F)cc3)nn21 (stereo not given)
O=C(NCCSCc1cccc(Cl)c1)C1CCN(S(=O)(=O)Cc2ccccc2)CC1
Cc1nc2nc(SCc3ccc(F)cc3Cl)nn2c(C)c1Cc1ccccc1
COc1cc(C2c3c(oc4ccccc4c3=O)C(=O)N2c2nncs2)cc(OC)c1OC (stereo not given)
CCC1CN(C(=O)N2CCC(C(=O)Nc3cc(C)ccc3C)CC2)c2ccccc2O1 (stereo not given)
COc1cccc(N2CC(NC(=O)c3ccc4c(c3)OCO4)CC2=O)c1 (stereo not given)
Cc1nc2nc(-c3ccc(Cl)cc3Cl)nn2c(C)c1CCC(=O)Nc1ccc(F)cc1
COc1ccc(-c2c(C)nn3c4c(cnc23)C(=O)CC(c2ccccc2)C4)cc1 (stereo not given)
CCc1ccc(NC(=O)c2cc3nc(-c4ccc(C)cc4)cc(C(F)(F)F)n3n2)cc1

Activity change, negative = inhibition, inactive:
COc1ccc(N2CC(NC(=O)c3ccc4c(c3)OCO4)CC2=O)cc1 (stereo not given) -1.69%
CC1CCc2nc3ncn(Cc4ccccc4F)c(=O)c3cc2C1 (stereo not given) 4.28%
CCOc1ccc(NC(=O)c2cnc(N3CCCCC3)c3ccccc23)cc1 -13.9%
CC(C)NC(=O)C1CCC(Cn2c(=O)c3sccc3n(CC(=O)NCc3ccccc3)c2=O)CC1 (stereo not given) 1.54%
COc1ccc(NC(=O)Cn2cnc3c(oc4ccccc43)c2=O)cc1OC 10.8%
CCCOc1c(Cl)cc(C(=O)N(Cc2cccc(OC)c2)C2CCS(=O)(=O)C2)cc1Cl (stereo not given) 3.6%
CC(C)OC(=O)CCCC=CC[C@@H]1[C@H](C=C[C@@H](O)COc2cccc(C(F)(F)F)c2)[C@H](O)C[C@@H]1O -22.3%
CN(c1ccccc1)S(=O)(=O)c1nnc(NC(=O)c2ccccc2)s1 0.993%
O=C(NCc1ccc2c(c1)OCO2)c1ccc2c(c1)N(Cc1ccccc1)C(=O)c1ccccc1S2=O (stereo not given) 81.3%
CCOC(=O)c1c(-c2ccccc2)csc1NC(=O)c1cc(-c2ccc(F)cc2)on1 3.13%
Cc1cc(C(=O)Nc2ccc(C(C)C)cc2)c2c(C)nn(-c3ccccc3)c2n1 -3.35%
Cc1ccsc1CN(C(=O)c1oc2cc(Br)ccc2c1C)C1CCS(=O)(=O)C1 (stereo not given) -23.6%
CCOc1ccc(C(=O)c2c(N)c(-c3nc(-c4ccc5c(c4)OCO5)cs3)c3ccccn23)cc1 4.3%
COC(=O)Cn1c(=O)c2cccn2c2cccnc21 0.0488%
COc1ccccc1CNc1ccc(-c2nc(-c3ccco3)no2)cc1[N+](=O)[O-] -14.1%
Cc1cccc2c(=O)cc(CSc3ccccc3NC(=O)c3cccc(F)c3)[nH]c12 6.08%
CCOc1ccccc1NC(=O)Cn1cc(C(=O)c2ccc(Cl)cc2)c(=O)c2ccc(C)nc21 0.0812%
CN(C)CCCN(C(=O)c1ccc2c(c1)OCCO2)c1nc2ccccc2s1 -6.58%
Cc1cc2nn(-c3ccc(F)cc3)nc2cc1NC(=O)c1cccc2ccccc12 -4.51%
O=C(Nc1nnc(S(=O)(=O)N2CCOCC2)s1)c1ccccc1Cl -9.54%
CCCC(=O)n1nc(-c2ccco2)nc1NCc1ccccc1Cl 1.23%
Cc1ccc(OCC(=O)Nc2ccc3c(c2)nc(CCNC(=O)c2ccco2)n3C)cc1 2.49%
COc1ccc(N2CCN(C(=O)CN3C(=O)CSc4c3c(C)nn4-c3ccccc3)CC2)cc1 4.1%
O=C(Nc1ccc2nc(SCc3ccccc3)sc2c1)c1ccccc1F -4.29%
O=C(Nc1ccc(F)c(Cl)c1)c1cc(S(=O)(=O)N2CCc3ccccc3C2)ccc1F -6.05%
CCn1c(=O)c(=O)n(CC)c2cc(N3CCCCC3)c(NC(=O)c3ccc(Cl)cc3)cc21 -2.3%
COc1ccc(CNC(=O)CN2N=C(c3ccccc3)CCC2=O)c(OC)c1 -7.66%
Cc1ccccc1N1CC(C(=O)Nc2ccc(Br)cc2)CC1=O (stereo not given) 3.13%
COCCCNc1nc2cc(OC)c(OC)cc2c2nc(-c3ccccc3)nn12 0.523%
O=C(CSc1n[nH]c(-c2ccccc2)n1)NCCCc1ccccc1 8.99%
COc1ccc(C(=O)NCc2nnc(SCC(=O)Nc3ccccc3)n2-c2ccccc2)cc1 3.28%
Cc1nnc(N2CCCC(C(=O)NCc3ccccc3F)C2)c2nn(-c3ccc(Cl)cc3)c(C)c12 (stereo not given) 2.44%
COc1ccc(NC(=O)CSc2ncccc2C(=O)O)cc1OC 1.82%
COc1ccc(NC(=O)CCSc2nc(-c3ccco3)cc(C(F)(F)F)n2)cc1 -10.7%
Cc1ccc(C)c(Nc2ncnc3onc(C)c23)c1 -2.99%
O=C(Cn1c(=O)c2ccccc2n(CC(=O)Nc2ccc(F)cc2F)c1=O)NCCc1ccccc1 14.7%
COc1ccc(-c2nc3cc(C(C)C)ccc3o2)cc1NC(=O)COc1ccc(C)cc1C 1.62%
CCN(CC)CCNC(=O)c1ccc2c(c1)NC(=O)C(CS(=O)(=O)Cc1cccc(Br)c1)N2 (stereo not given) -4.57%
CCc1ccc(OCCCn2c(-c3ccc(Cl)cc3)nc3ccccc3c2=O)cc1 -0.49%
CCN(CC)c1ccc(CN(C(=O)Cc2coc3ccc(C)cc23)C2CCS(=O)(=O)C2)cc1 (stereo not given) -7.12%
CCOc1cccc(CC(=O)N2CCc3c([nH]c4ccccc34)C2c2ccccc2)c1OCC (stereo not given) -4.44%
CCn1nc(C)c2c(-c3ccccc3)cc(=O)n(C(C)C(=O)NCc3cccc(OC)c3)c21 (stereo not given) 6.25%
CCOc1ccccc1CNCc1c(C(=O)O)c(C)n(Cc2ccc(Cl)cc2)c1C 17.5%
CCN(Cc1ccccc1)Cc1c(O)ccc2c(=O)c(-c3ccccc3)c(C(F)(F)F)oc12 1.39%
COc1ccc(C(=O)Nc2cc(C(C)C)c(O)c(S(=O)(=O)c3ccc(Cl)cc3)c2C)cc1 1.41%
O=C(c1[nH]c2ccccc2c1Sc1ccc(Cl)cc1)N1CCCCC1 -12.3%
Cc1ccc(OCC(=O)OCc2cc(=O)n3nc(C4CCCCC4)sc3n2)cc1C -3.7%
CCC1CN(C(=O)N2CCC(C(=O)NCCc3ccccc3C)CC2)c2ccccc2O1 (stereo not given) -9.55%
c1ccc(-c2nnc(CN3CCN(c4ccccn4)CC3)o2)cc1 3.55%
CCN(CC)c1ccc(NC(=O)c2cc(C)nc3c2c(C)nn3-c2cccc(F)c2)c(C)c1 3.75%
Cc1ccc(Cl)cc1NC(=O)CSc1ccc(C(=O)O)cn1 -17.6%
CCOc1ccc(-c2cn3c(n2)sc2cc(C(=O)NCCCc4ccccc4)ccc23)cc1 2.46%
O=C(COc1ccc(F)cc1)Nc1ccccc1C(=O)OCc1cc(=O)n2nc(C3CC3)sc2n1 -0.713%
COc1ccc(C(CC(=O)Nc2cccc(C)c2C)N2Cc3ccccc3C2=O)cc1 (stereo not given) 23.2%
Cc1cccc(-c2cc(NC(=O)C(C)(C)C)n(-c3ccccc3)n2)c1 -0.75%
CCCCN(C)CCCNC(=O)CN1C(=O)COc2ccc(S(=O)(=O)N3CCOCC3)cc21 3.69%
CC(NC(=O)c1ccc(Nc2nc3ccccc3n3nnnc23)cc1)c1ccccc1 (stereo not given) -19.1%
O=C(CS(=O)(=O)c1cccc2nsnc12)NCc1ccc(Cl)cc1 -1.3%
Cc1cc(C)c(NC(=O)CCCN2C(=O)COc3ccc(C)cc32)c(C)c1 -1.9%
CC(=O)c1ccc(NC(=O)C2CCCN(S(=O)(=O)c3ccc4c(c3)CCCN4C(C)=O)C2)cc1 (stereo not given) 5.14%
COc1ccccc1N1CCN(S(=O)(=O)c2c(C)sc3ncn(CC(=O)Nc4ccc(C(F)(F)F)cc4)c(=O)c23)CC1 8.09%
COC(=O)c1sc(NC(=O)c2cc3nc(-c4ccc(Br)cc4)cc(C(F)(F)F)n3n2)c(C(=O)OC)c1C 8.56%
CCOC(=O)c1c(NC(=O)Cc2coc3cc(C)ccc23)sc2c1CCCC2 6.23%
O=C(O)Cc1sc(Nc2ccccc2Cl)nc1-c1ccccc1 9.89%
O=C(Cn1ccc2cc(S(=O)(=O)N3CCCCC3)ccc21)NCCc1ccc(Cl)cc1 7.43%
Cc1ccc(OCC(=O)Nc2ccccc2C(=O)OCc2cc(=O)n3ccsc3n2)cc1C -2.69%
COc1ccc(CCNC(=O)CN(c2cc(C(F)(F)F)ccc2Cl)S(C)(=O)=O)cc1 9.54%
Cc1cccc(C)c1N1CC(c2nc3ccccc3n2CC(=O)OC(C)C)CC1=O (stereo not given) 4.46%
COc1ccccc1Nc1nn2c(=O)c3ccc(C(=O)N4CCCCC4)cc3nc2s1 -28.7%
COc1ccc(CCC(=O)Nc2nc3ccc(Cl)cc3s2)cc1OC 17.6%
CCOC(=O)c1cc(S(=O)(=O)N2CCN(c3cc(C)ccc3C)CC2)[nH]n1 13.2%
COc1ccc(CC(=O)NCc2nc3cccnc3n2Cc2ccc(C)cc2)cc1 12.8%
CCCN(CCC)C(=O)CSc1nc2ccccc2c(=O)n1Cc1ccco1 -7.66%
COc1cc(-c2ccno2)ccc1S(=O)(=O)N1CCN(c2ccccc2F)CC1 0.796%
